In PubChem BioAssay AID624417 (National Center for Advancing Translational Sciences (NCATS), 2012):
Screen size: about 410,000 compounds; about 6,400 (1.6%) were called active. Inconclusive means that the source gave no clear call. Such entries were picked first, then a sample of the others. Calls come from the whole dose curve; as a rule, active = well fitted inhibition curve with a large enough effect; inconclusive = small, poorly fitted or top-dose-only effect; inactive = no such curve, though single readings can be large or run the other way. No potency is given beside an inconclusive call; the fits are too rough.

What follows are compounds tested against Glucagon-like peptide 1 receptor (Homo sapiens) (UniProt P43220) (assay: qHTS of GLP-1 Receptor Inverse Agonists (Inhibition Mode)). Conditions: HEK293 GLP-1R CRE-luciferase, luminescence, 24 h, GLP-1R form is constitutively active; activity change, negative = inhibition: at 38.3 µM (top of the series) unless noted.
Sequence of UniProt P43220 (P43220 whole entry, looked up): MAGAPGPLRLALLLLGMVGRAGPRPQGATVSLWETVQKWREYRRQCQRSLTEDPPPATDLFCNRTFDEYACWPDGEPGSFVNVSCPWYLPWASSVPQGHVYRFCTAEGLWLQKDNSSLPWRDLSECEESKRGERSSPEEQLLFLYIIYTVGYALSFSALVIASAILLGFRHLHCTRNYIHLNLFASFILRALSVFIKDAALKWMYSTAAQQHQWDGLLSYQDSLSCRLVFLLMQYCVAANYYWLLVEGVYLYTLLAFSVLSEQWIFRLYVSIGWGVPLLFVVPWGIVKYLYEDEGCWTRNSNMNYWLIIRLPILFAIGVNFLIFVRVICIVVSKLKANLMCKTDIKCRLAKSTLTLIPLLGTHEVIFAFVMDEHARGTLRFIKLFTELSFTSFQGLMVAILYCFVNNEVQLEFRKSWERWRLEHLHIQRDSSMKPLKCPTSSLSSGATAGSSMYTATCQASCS
Method in brief: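 HEK293 cells stably co-expressing constitutively active GLP-1R and a cAMP-responsive luciferase reporter were seeded in DMEM with 10% Nu serum, given compounds after 12 h, and incubated 24 h at 37 deg C. Luminescence was then read.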
% is set by controls: 0 for no effect and ±100 for the full control effect; potency is the fitted concentration of half-maximal effect; tags give direction and shape of the fitted curve.
Note: nearly all actives have a fitted effect of over 55% in size.

SMILES	Potency	activity change, negative = inhibition
O=C1CSC(c2ccccc2O)N1Cc1ccccc1 (stereo not drawn)	inconclusive [inhibitor, single point]	–
CN(C)c1ccc(/C=N/NC(=O)c2ccc3c(c2)OCO3)cc1	inconclusive [inhibitor, single point]	–
CCN(CC)C(=O)CN(c1ccc(C)cc1)S(=O)(=O)c1ccc(SC)cc1	inconclusive [inhibitor, single point]	–
FC(F)(F)c1cccc(NC(=S)N2CCN(c3cccc(C(F)(F)F)c3)CC2)c1	inconclusive [inhibitor, partial curve, poor fit]	–
O=C1CCCN1CCCNc1ncnc2sccc12	inconclusive [inhibitor, single point]	–
Cc1ccsc1C(=O)C1CCCN(Cc2cc(F)ccc2-n2cccn2)C1 (stereo not drawn)	–	inactive: -4.25% [at 0.307 µM]
CC1(C)CC(=O)C(C(C2=C(O)CC(C)(C)CC2=O)c2ccc(Br)s2)C(=O)C1 (stereo not drawn)	inconclusive [inhibitor, partial curve, poor fit]	–
COc1ccc(Cn2c(C(=O)O)c(CNCc3ccc(C)o3)c3ccc(C)cc32)cc1	inconclusive [inhibitor, single point]	–
C#Cc1ccc([C@H]2C=C(C(=O)NCc3ccccc3)O[C@@H](OCC)[C@@H]2CCCO)cc1	inconclusive [inhibitor, partial curve, poor fit]	–
O=C(NC1CCCCC1)C(Cc1ccccc1)N1C(=O)C2C3CCC(C3)C2C1=O (stereo not drawn)	inconclusive [inhibitor, single point]	–
Cc1ccc(C)c(S(=O)(=O)N2CCN(C(C(=O)Nc3ccc(F)cc3)c3ccccc3)CC2)c1 (stereo not drawn)	inconclusive [inhibitor, partial curve, poor fit]	–
C#Cc1ccc([C@H]2C=C(C(=O)OCC=C)O[C@@H](OCC)[C@@H]2CCCO)cc1	inconclusive [inhibitor, single point]	–
COc1ccc(-c2csc(NC(=O)C3CCN(C(=O)c4ccc(F)cc4)CC3)n2)cc1OC	inconclusive [inhibitor, partial curve, poor fit]	–
COc1ccc(-n2c(=O)c(CCC(=O)N3CCN(c4ccccc4O)CC3)nc3ccccc32)cc1	inconclusive [inhibitor, partial curve, poor fit]	–
CC(=O)N1CCc2nc3sc(C(=O)Nc4ccc(Cl)cc4F)c(N)c3c(C(F)(F)F)c2C1	–	inactive: 8.93%
CN(C(=O)CCc1ccccc1F)C1CCCN(Cc2ccccc2F)C1 (stereo not drawn)	inconclusive [inhibitor, partial curve, poor fit]	–
Cc1nn(-c2ccccc2)c(Cl)c1/C=N/O	–	inactive: 53.4%
Cc1ccc(NC(=S)NCc2ccccc2)c(C)c1	inconclusive [inhibitor, single point]	–
CN(C)C(=O)COC(=O)c1ccccc1Nc1ccc(SC(F)F)cc1	inconclusive [inhibitor, partial curve, poor fit]	–

SMILES	Potency	activity change, negative = inhibition
CC(C)(C)OC(=O)NCc1ccc(NC(=O)c2nc[nH]c2C(=O)NCCNC(=O)c2[nH]cnc2C(=O)Nc2ccc(CNC(=O)OC(C)(C)C)cc2)cc1	inconclusive [inhibitor, full curve, poor fit]	–
O=S(=O)(c1ccc(Br)s1)N1CCN(CCOc2ccccc2)CC1	inconclusive [inhibitor, single point]	–
Cc1cccc(C)c1-n1cccc1/C=C1/C(=N)N2C(=NC1=O)SN=C2S(C)(=O)=O	inconclusive [inhibitor, partial curve]	–
COc1ccc(C)cc1N(C(=O)c1snc(C(N)=O)c1N)C(C(=O)NC1CCCC1)c1ccc(F)cc1 (stereo not drawn)	inconclusive [inhibitor, single point]	–
CS(=O)(=O)N(CC(=O)Nc1ccc(Br)cc1)C1CCCCC1	inconclusive [inhibitor, partial curve, poor fit]	–
O=c1cc(-c2ccccc2)nc2nc(-c3ccccc3)[nH]n12	–	inactive: 6.19%
CC/C(=N\NC(=O)CSCc1ccc(Cl)cc1)c1ccc2c(c1)OCCO2	inconclusive [inhibitor, single point]	–
COc1cccc(CCC(=O)N(C)C2CCCN(Cc3ccccc3F)C2)c1 (stereo not drawn)	inconclusive [inhibitor, partial curve, poor fit]	–
COc1ccc(CN2CCC(C)CC2)cc1OCc1ccccc1	inconclusive [inhibitor, single point]	–
COc1ccc(CNc2ncnc3onc(-c4ccc(F)cc4)c23)cc1	inconclusive [inhibitor, single point]	–
CNC(=O)/C(C#N)=C/c1c(N(Cc2ccccc2)Cc2ccccc2)nc2c(C)cccn2c1=O	inconclusive [inhibitor, single point]	–
CCOc1ccccc1NC(=O)N1CCc2c(sc(C)c2CC)C1c1ccccc1 (stereo not drawn)	inconclusive [inhibitor, partial curve, poor fit]	–
Cc1cccc(C)c1-n1nnnc1C(c1cccs1)N1CCN(C/C=C/c2ccccc2)CC1 (stereo not drawn)	inconclusive [inhibitor, single point]	–
CC12COC3(C(=O)Nc4ccc(Cl)cc4)CC1CCC32C (stereo not drawn)	inconclusive [inhibitor, partial curve, poor fit]	–
CN(Cc1ccccc1)C(=S)NC(=O)c1cccs1	inconclusive [inhibitor, single point]	–
COc1ccc(F)cc1CN1CCN(CC(=O)Nc2ccccc2C(=O)NC2CC2)CC1	–	inactive: -23%
Cc1ccc(C(C(=O)Nc2ccc(C(C)C)cc2)N(C)C(=O)c2ccc(=O)[nH]c2)cc1 (stereo not drawn)	inconclusive [inhibitor, single point]	–
O=[N+]([O-])c1ccccc1OCCCN1CCc2ccccc2C1	inconclusive [inhibitor, single point]	–
Cn1cc(CN2CCN(Cc3ccccc3)CC2)c(-c2cccc(Cl)c2)n1	inconclusive [inhibitor, partial curve, poor fit]	–
